Experiment [1] concerns the target T1, human FcRn (Biorbyt, cat. no. orb84388) (human, UniProt P55899 24-297; P61769 21-119, limits assumed).
T1 construct: Bought protein; Biotinylated in AlphaLISA and ELISA; also called biotinylated human FcRn
Briefly: ELISA titration of biotinylated human FcRn, pH 6.0. Here is the method: (§1) ELISA KD analysis of FcRn binding Z variants: A selection of FcRn binders was subjected to an analysis of the response against a dilution series of biotinylated human FcRn using ELISA at both pH 6.0 and pH 7.4 as described above. […] As a background control, all Z variants were also assayed with no target protein added. […] Data were analyzed using GraphPad Prism 5 and non-linear regression and KD values (the half maximal effective concentration) were calculated.
(§2) Periplasm samples were incubated with a serial dilution of biotinylated human FcRn.

In experiment [2] the target is T1, human FcRn (Biorbyt, cat. no. orb84388). The experiment can be described thus: ELISA titration of biotinylated human FcRn, pH 7.4. Here is the method: as §1, §2
T1 sequence (P55899 24-297 limits assumed, chain 1 of 2): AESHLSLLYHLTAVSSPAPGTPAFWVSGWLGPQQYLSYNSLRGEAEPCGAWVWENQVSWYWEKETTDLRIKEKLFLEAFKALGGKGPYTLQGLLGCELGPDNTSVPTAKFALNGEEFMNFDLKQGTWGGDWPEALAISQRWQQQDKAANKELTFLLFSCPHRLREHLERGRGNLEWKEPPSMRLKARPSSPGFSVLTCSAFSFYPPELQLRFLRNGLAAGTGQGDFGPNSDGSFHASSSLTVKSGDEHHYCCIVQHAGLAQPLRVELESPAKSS
T1 sequence (P61769 21-119 limits assumed, chain 2 of 2, further chain): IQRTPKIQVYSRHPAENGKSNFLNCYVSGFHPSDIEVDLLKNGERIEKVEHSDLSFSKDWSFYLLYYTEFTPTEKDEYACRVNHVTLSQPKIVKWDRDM

B1: Z13761-ABD fusion (designed binder)
chain: AQHDEALEVDAKYAKELEEAAHEIRWLPNLTFDQRVAFIHKLRDDPSQSSELLSEAKKLNDSQAPKVDYVLAEAKVLANRELDKYGVSDYYKNLINNAKTVEGVKALIDEILAALPYVPG
notes: domain: GA3; periplasmic Z-ABD fusion
As to B1, the values for the Kd in experiment [1] and in experiment [2] were 1.9 nM and 3.7 nM, respectively.

B2: Z13573-ABD fusion (designed binder)
chain: AQHDEALEVDAKYAKESKDAAHEIRWLPNLTFDQRVAFIHKLRDDPSQSSELLSEAKKLNDSQAPKVDYVLAEAKVLANRELDKYGVSDYYKNLINNAKTVEGVKALIDEILAALPYVPG
notes: as for B1
For B2, the figures for the Kd in experiment [1] and in experiment [2] were 1.1 nM and 3.8 nM, respectively.

B3: Z13577-ABD fusion (designed binder)
chain: AQHDEALEVDAKYAKEWHQAAHEIRWLPNLTFDQRVAFIHKLRDDPSQSSELLSEAKKLNDSQAPKVDYVLAEAKVLANRELDKYGVSDYYKNLINNAKTVEGVKALIDEILAALPYVPG
notes: as for B1
On to B3, for which the Kd was 0.99 nM in experiment [1] and 1.4 nM in experiment [2].

B4: Z13587-ABD fusion (designed binder)
chain: AQHDEALEVDAKYAKEHVDAAHEIRWLPNLTFDQRVAFIHKLRDDPSQSSELLSEAKKLNDSQAPKVDYVLAEAKVLANRELDKYGVSDYYKNLINNAKTVEGVKALIDEILAALPYVPG
notes: as for B1
Consider B4, for which the figures for the Kd in experiment [1] and in experiment [2] were 1.4 nM and 6.9 nM, respectively.

B5: Z13597-ABD fusion (designed binder)
chain: AQHDEALEVDAKYAKELQSAAHEIRWLPNLTFDQRVAFIHKLKDDPSQSSELLSEAKKLNDSQAPKVDYVLAEAKVLANRELDKYGVSDYYKNLINNAKTVEGVKALIDEILAALPYVPG
notes: as for B1
Consider B5, for which the Kd turned out to be 1.4 nM in experiment [1] and 6 nM in experiment [2].

B6: Z13585-ABD fusion (designed binder)
chain: AQHDEALEVDAKYAKEYLDAAHEIRWLPNLTFDQRVAFIHKLRDDPSQSSELLSEAKKLNDSQAPKVDYVLAEAKVLANRELDKYGVSDYYKNLINNAKTVEGVKALIDEILAALPYVPG
notes: as for B1
For B6, the equilibrium dissociation constant (Kd) was found to be 1.2 nM in experiment [1] and 1.7 nM in experiment [2].

B7: Z13598-ABD fusion (designed binder)
chain: AQHDEALEVDAKYAKELEKAAHEIRWLPNLTFDQRVAFIHKLRDDPSQSSELLSEAKKLNDSQAPKVDYVLAEAKVLANRELDKYGVSDYYKNLINNAKTVEGVKALIDEILAALPYVPG
notes: as for B1
With B7, the Kd amounted to 1.1 nM in experiment [1] and 1.7 nM in experiment [2].

B8: Z13594-ABD fusion (designed binder)
chain: AQHDEALEVDAKYAKEIDEAKHEIRWLPNLTFDQRVAFIHKLDDDPSQSSELLSEAKKLNDSQAPKVDYVLAEAKVLANRELDKYGVSDYYKNLINNAKTVEGVKALIDEILAALPYVPG
notes: as for B1
With B8, the results for the Kd in experiment [1] and in experiment [2] were 1.3 nM and 6.3 nM, respectively.

B9: Z13621-ABD fusion (designed binder)
chain: AQHDEALEVDAKYAKEADAAGHEIRWLPNLTFDQRVAFIHKLRDDPSQSSELLSEAKKLNDSQAPKVDYVLAEAKVLANRELDKYGVSDYYKNLINNAKTVEGVKALIDEILAALPYVPG
notes: as for B1
As to B9, the equilibrium dissociation constant (Kd) in experiment [1] was 0.86 nM; in experiment [2] it was 1.4 nM.

B10: Z13624-ABD fusion (designed binder)
chain: AQHDEALEVDAKYAKESKQAAHEIRWLPNLTFDQRVAFIHKLRDDPSQSSELLSEAKKLNDSQAPKVDYVLAEAKVLANRELDKYGVSDYYKNLINNAKTVEGVKALIDEILAALPYVPG
notes: as for B1
Take B10: the Kd amounted to 1.3 nM in experiment [1] and 3.4 nM in experiment [2].

B11: Z13611-ABD fusion (designed binder)
chain: AQHDEALEVDAKYAKEWKAAAHEIRWLPNLTFDQRVAFIHKLRDDPSQSSELLSEAKKLNDSQAPKVDYVLAEAKVLANRELDKYGVSDYYKNLINNAKTVEGVKALIDEILAALPYVPG
notes: as for B1
As for B11, the Kd in experiment [1] stood at 1.3 nM; in experiment [2], 2.5 nM.

B12: Z13613-ABD fusion (designed binder)
chain: AQHDEALEVDAKYAKELEAARHEIRWLPNLTFDQRVAFIHKLNDDPSQSSELLSEAKKLNDSQAPKVDYVLAEAKVLANRELDKYGVSDYYKNLINNAKTVEGVKALIDEILAALPYVPG
notes: as for B1
Turning to B12, the figures for the dissociation constant (Kd) in experiment [1] and in experiment [2] were 1.2 nM and 4.3 nM, respectively.

B13: Z13600-ABD fusion (designed binder)
chain: AQHDEALEVDAKYAKEAHEAAHEIRWLPNLTFDQRVAFIHKLRDDPSQSSELLSEAKKLNDSQAPKVDYVLAEAKVLANRELDKYGVSDYYKNLINNAKTVEGVKALIDEILAALPYVPG
notes: as for B1
With B13, the Kd in experiment [1] is 1.4 nM; in experiment [2], 4 nM.

B14: Z13609-ABD fusion (designed binder)
chain: AQHDEALEVDAKYAKEWKVAAHEIRWLPNLTFDQRVAFIHKLRDDPSQSSELLSEAKKLNDSQAPKVDYVLAEAKVLANRELDKYGVSDYYKNLINNAKTVEGVKALIDEILAALPYVPG
notes: as for B1
For the molecule B14, the Kd in experiment [1] came out at 1.3 nM; in experiment [2] it was 2.7 nM.

B15: Z13574-ABD fusion (designed binder)
chain: AQHDEALEVDAKYAKEKKEAAHEIRWLPNLTFDQRVAFIHKLRDDPSQSSELLSEAKKLNDSQAPKVDYVLAEAKVLANRELDKYGVSDYYKNLINNAKTVEGVKALIDEILAALPYVPG
notes: as for B1
For B15, the equilibrium dissociation constant (Kd) stood at 1.2 nM in experiment [1] and 5 nM in experiment [2].

B16: Z13579-ABD fusion (designed binder)
chain: AQHDEALEVDAKYAKEISAASHEIRWLPNLTFDQRVAFIHKLRDDPSQSSELLSEAKKLNDSQAPKVDYVLAEAKVLANRELDKYGVSDYYKNLINNAKTVEGVKALIDEILAALPYVPG
notes: as for B1
As to B16, the Kd is 1.2 nM in experiment [1] and 5.3 nM in experiment [2].

B17: Z13617-ABD fusion (designed binder)
chain: AQHDEALEVDAKYAKEADQAGHEIRWLPNLTFDQRVAFIRKLRDDPSQSSELLSEAKKLNDSQAPKVDYVLAEAKVLANRELDKYGVSDYYKNLINNAKTVEGVKALIDEILAALPYVPG
notes: as for B1
Take B17: the figures for the equilibrium dissociation constant (Kd) in experiment [1] and in experiment [2] were 1.2 nM and 1.9 nM, respectively.

B18: Z13605-ABD fusion (designed binder)
chain: AQHDEALEVDAKYAKEIESAKHEIRWLPNLTFDQRVAFIHKLNDDPSQSSELLSEAKKLNDSQAPKVDYVLAEAKVLANRELDKYGVSDYYKNLINNAKTVEGVKALIDEILAALPYVPG
notes: as for B1
Turning to B18, the equilibrium dissociation constant (Kd) worked out at 1.3 nM in experiment [1] and 3.8 nM in experiment [2].

B19: Z13592-ABD fusion (designed binder)
chain: AQHDEALEVDAKYAKEVDIAAHEIRWLPNLTFDQRVAFIHKLRDDPSQSSELLSEAKKLNDSQAPKVDYVLAEAKVLANRELDKYGVSDYYKNLINNAKTVEGVKALIDEILAALPYVPG
notes: as for B1
For the molecule B19, the Kd in experiment [1] is 0.95 nM; in experiment [2], 1.8 nM.

B20: Z13616-ABD fusion (designed binder)
chain: AQHDEALEVDAKYAKEWQQAAHEIRWLPNLTFDQRVAFIHKLRDDPSQSSELLSEAKKLNDSQAPKVDYVLAEAKVLANRELDKYGVSDYYKNLINNAKTVEGVKALIDEILAALPYVPG
notes: as for B1
Regarding B20, the results for the Kd in experiment [1] and in experiment [2] were 0.96 nM and 1.7 nM, respectively.

B21: Z13625-ABD fusion (designed binder)
chain: AQHDEALEVDAKYAKEVSDAAHEIRWLPNLTFDQRVAFIHKLRDDPSQSSELLSEAKKLNDSQAPKVDYVLAEAKVLANRELDKYGVSDYYKNLINNAKTVEGVKALIDEILAALPYVPG
notes: as for B1
Take B21: the Kd was 1.3 nM in experiment [1] and 2.8 nM in experiment [2].

By Kd is commonly meant the constant that tells how readily two partners part at equilibrium. Read a high Kd as weaker binding.
